{
  "source": "the supplement of paper PMC8728848",
  "binders": {"B1": {"name": "FGFR2-Fc (protein)", "chain": "MVNVTDAISSGDDEDDTDGAEDFVSENSNNKRAPYWTNTEKMEKRLHAVPAANTVKFRCPAGGNPMPTMRWLKNGKEFKQEHRIGGYKVRNQHWSLIMESVVPSDKGNYTCVVENEYGSINHTYHLDVVERSPHRPILQAGLPANASTVVGGDVEFVCKVYSDAQPHIQWIKHVEKNGSKYGPDGLPYLKVLKHSGINSSNAEVLALFNVTEADAGEYICKVSNYIGQANQSAWLTVLPKQQAPGREKEITASPDYLETRPLEQKLISEEDLAANDILDYKDDDDKV"}},
  "test_in_all_cases": "glycan array binding signal (z-score within array); higher = stronger binding",
  "settings_in_all_cases": "glycan notation: IUPAC condensed, linker removed",
  "key": {"[1]": {"target": "Gal(b1-3)GlcNAc(b1-2)Man(a1-3)[Gal(b1-3)GlcNAc(b1-2)Man(a1-6)]Man(b1-4)GlcNAc(b1-4)[Fuc(a1-6)]GlcNAc", "in_short": "(§1)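 Negative Z-scores can be read as non-binding. The Z-score is calculated within each array and then averaged across arrays of one protein sequence at different concentrations or buffers and across linkers. Arrays, 3228 in all, were curated from the Consortium for Functional Glycomics database and kept only where the protein sequence was available.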"}, "[2]": {"target": "Gal(b1-3)GlcNAc(b1-2)Man(a1-3)[GlcNAc(b1-4)][Gal(b1-3)GlcNAc(b1-2)Man(a1-6)]Man(b1-4)GlcNAc(b1-4)GlcNAc", "in_short": "as §1"}, "[3]": {"target": "Gal(b1-3)GlcNAc(b1-2)[Gal(b1-3)GlcNAc(b1-6)]Man(a1-6)[Gal(b1-3)GlcNAc(b1-2)Man(a1-3)]Man(b1-4)GlcNAc(b1-4)GlcNAc", "in_short": "as §1"}, "[4]": {"target": "Gal(b1-3)GlcNAc(b1-3)Gal(b1-3)GlcNAc", "in_short": "as §1"}, "[5]": {"target": "Gal(b1-3)GlcNAc(b1-3)Gal(b1-4)Glc", "in_short": "as §1"}, "[6]": {"target": "Gal(b1-3)GlcNAc(b1-3)Gal(b1-4)GlcNAc", "in_short": "as §1"}, "[7]": {"target": "Gal(b1-3)GlcNAc(b1-3)Gal(b1-4)GlcNAc(b1-2)Man(a1-3)[Gal(b1-3)GlcNAc(b1-3)Gal(b1-4)GlcNAc(b1-2)Man(a1-6)]Man(b1-4)GlcNAc(b1-4)GlcNAc", "in_short": "as §1"}, "[8]": {"target": "Gal(b1-3)GlcNAc(b1-3)Gal(b1-4)GlcNAc(b1-2)[Gal(b1-3)GlcNAc(b1-3)Gal(b1-4)GlcNAc(b1-6)]Man(a1-6)[Gal(b1-3)GlcNAc(b1-3)Gal(b1-4)GlcNAc(b1-2)Man(a1-3)]Man(b1-4)GlcNAc(b1-4)[Fuc(a1-6)]GlcNAc", "in_short": "as §1"}, "[9]": {"target": "Gal(b1-3)GlcNAc(b1-3)Gal(b1-4)GlcNAc(b1-3)Gal(b1-4)GlcNAc(b1-2)[Gal(b1-3)GlcNAc(b1-3)Gal(b1-4)GlcNAc(b1-3)Gal(b1-4)GlcNAc(b1-6)]Man(a1-6)[Gal(b1-3)GlcNAc(b1-3)Gal(b1-4)GlcNAc(b1-3)Gal(b1-4)GlcNAc(b1-2)Man(a1-3)]Man(b1-4)GlcNAc(b1-4)[Fuc(a1-6)]GlcNAc", "in_short": "as §1"}, "[10]": {"target": "Gal(b1-3)GlcNAc(b1-3)Gal(b1-4)GlcNAc(b1-6)[Gal(b1-3)GlcNAc(b1-3)]Gal(b1-4)Glc", "in_short": "as §1"}, "[11]": {"target": "Gal(b1-3)GlcNAc(b1-3)Gal(b1-4)[Fuc(a1-3)]GlcNAc", "in_short": "as §1"}, "[12]": {"target": "Gal(b1-3)GlcNAc(b1-3)Gal(b1-4)[Fuc(a1-3)]GlcNAc(b1-6)[Gal(b1-3)GlcNAc(b1-3)]Gal(b1-4)Glc", "in_short": "as §1"}, "[13]": {"target": "Gal(b1-3)GlcNAc(b1-3)GalNAc", "in_short": "as §1"}, "[14]": {"target": "Gal(b1-3)GlcNAc(b1-6)Gal(b1-4)GlcNAc", "in_short": "as §1"}, "[15]": {"target": "Gal(b1-3)GlcNAc(b1-6)GalNAc", "in_short": "as §1"}, "[16]": {"target": "Gal(b1-3)GlcNAc(b1-6)[Gal(b1-3)]GalNAc", "in_short": "as §1"}, "[17]": {"target": "Gal(b1-3)GlcNAc6S", "in_short": "as §1"}, "[18]": {"target": "Gal(b1-3)[Fuc(a1-4)]GlcNAc", "in_short": "as §1"}, "[19]": {"target": "Gal(b1-3)[Fuc(a1-4)]GlcNAc(b1-2)Man", "in_short": "as §1"}, "[20]": {"target": "Gal(b1-3)[Fuc(a1-4)]GlcNAc(b1-2)Man(a1-3)[Gal(b1-3)[Fuc(a1-4)]GlcNAc(b1-2)Man(a1-6)]Man(b1-4)GlcNAc(b1-4)[Fuc(a1-6)]GlcNAc", "in_short": "as §1"}, "[21]": {"target": "Gal(b1-3)[Fuc(a1-4)]GlcNAc(b1-3)Gal(b1-3)[Fuc(a1-4)]GlcNAc", "in_short": "as §1"}, "[22]": {"target": "Gal(b1-3)[Fuc(a1-4)]GlcNAc(b1-3)Gal(b1-4)[Fuc(a1-3)]GlcNAc", "in_short": "as §1"}, "[23]": {"target": "Gal(b1-3)[Fuc(a1-4)]GlcNAc(b1-6)GalNAc", "in_short": "as §1"}, "[24]": {"target": "Gal(b1-3)[GlcNAc(b1-6)]GalNAc", "in_short": "as §1"}, "[25]": {"target": "Gal(b1-3)[Neu5Ac(a2-6)]GalNAc", "in_short": "as §1"}, "[26]": {"target": "Gal(b1-3)[Neu5Ac(a2-6)]GlcNAc(b1-4)Gal(b1-4)Glc", "in_short": "as §1"}, "[27]": {"target": "Gal(b1-3)[Neu5Ac(b2-6)]GalNAc", "in_short": "as §1"}, "[28]": {"target": "Gal(b1-4)Gal", "in_short": "as §1"}, "[29]": {"target": "Gal(b1-4)GalNAc(a1-3)[Fuc(a1-2)]Gal(b1-4)GlcNAc", "in_short": "as §1"}, "[30]": {"target": "Gal(b1-4)GalNAc(b1-3)[Fuc(a1-2)]Gal(b1-4)GlcNAc", "in_short": "as §1"}, "[31]": {"target": "Gal(b1-4)Glc", "in_short": "as §1"}, "[32]": {"target": "Gal(b1-4)Glc6S", "in_short": "as §1"}, "[33]": {"target": "Gal(b1-4)GlcNAc", "in_short": "as §1"}, "[34]": {"target": "Gal(b1-4)GlcNAc(a1-6)Gal(b1-4)GlcNAc", "in_short": "as §1"}, "[35]": {"target": "Gal(b1-4)GlcNAc(b1-2)Man", "in_short": "as §1"}, "[36]": {"target": "Gal(b1-4)GlcNAc(b1-2)Man(a1-3)Man(b1-4)GlcNAc(b1-4)GlcNAc", "in_short": "as §1"}, "[37]": {"target": "Gal(b1-4)GlcNAc(b1-2)Man(a1-3)[Gal(b1-4)GlcNAc(b1-2)Man(a1-6)]Man(b1-4)GlcNAc(b1-4)GlcNAc", "in_short": "as §1"}},
  "note": "This is one part of the list.",
  "data": [
    {"binder": "B1", "values": [
      {"measurement": "glycan array binding signal (z-score)", "setting": "[1]", "value": 0.412},
      {"measurement": "glycan array binding signal (z-score)", "setting": "[2]", "value": -0.217},
      {"measurement": "glycan array binding signal (z-score)", "setting": "[3]", "value": 0.991},
      {"measurement": "glycan array binding signal (z-score)", "setting": "[4]", "value": -0.42},
      {"measurement": "glycan array binding signal (z-score)", "setting": "[5]", "value": -0.488},
      {"measurement": "glycan array binding signal (z-score)", "setting": "[6]", "value": -0.553},
      {"measurement": "glycan array binding signal (z-score)", "setting": "[7]", "value": 0.313},
      {"measurement": "glycan array binding signal (z-score)", "setting": "[8]", "value": 0.368},
      {"measurement": "glycan array binding signal (z-score)", "setting": "[9]", "value": 0.342},
      {"measurement": "glycan array binding signal (z-score)", "setting": "[10]", "value": 0.637},
      {"measurement": "glycan array binding signal (z-score)", "setting": "[11]", "value": -0.305},
      {"measurement": "glycan array binding signal (z-score)", "setting": "[12]", "value": -0.475},
      {"measurement": "glycan array binding signal (z-score)", "setting": "[13]", "value": -0.535},
      {"measurement": "glycan array binding signal (z-score)", "setting": "[14]", "value": 0.196},
      {"measurement": "glycan array binding signal (z-score)", "setting": "[15]", "value": -0.568},
      {"measurement": "glycan array binding signal (z-score)", "setting": "[16]", "value": -0.475},
      {"measurement": "glycan array binding signal (z-score)", "setting": "[17]", "value": -0.542},
      {"measurement": "glycan array binding signal (z-score)", "setting": "[18]", "value": 0.062},
      {"measurement": "glycan array binding signal (z-score)", "setting": "[19]", "value": 0.186},
      {"measurement": "glycan array binding signal (z-score)", "setting": "[20]", "value": 0.322},
      {"measurement": "glycan array binding signal (z-score)", "setting": "[21]", "value": 0.443},
      {"measurement": "glycan array binding signal (z-score)", "setting": "[22]", "value": -0.344},
      {"measurement": "glycan array binding signal (z-score)", "setting": "[23]", "value": 0.423},
      {"measurement": "glycan array binding signal (z-score)", "setting": "[24]", "value": -0.352},
      {"measurement": "glycan array binding signal (z-score)", "setting": "[25]", "value": -0.312},
      {"measurement": "glycan array binding signal (z-score)", "setting": "[26]", "value": 0.048},
      {"measurement": "glycan array binding signal (z-score)", "setting": "[27]", "value": 0.257},
      {"measurement": "glycan array binding signal (z-score)", "setting": "[28]", "value": -0.141},
      {"measurement": "glycan array binding signal (z-score)", "setting": "[29]", "value": -0.197},
      {"measurement": "glycan array binding signal (z-score)", "setting": "[30]", "value": -0.319},
      {"measurement": "glycan array binding signal (z-score)", "setting": "[31]", "value": -0.565},
      {"measurement": "glycan array binding signal (z-score)", "setting": "[32]", "value": 0.569},
      {"measurement": "glycan array binding signal (z-score)", "setting": "[33]", "value": -0.342},
      {"measurement": "glycan array binding signal (z-score)", "setting": "[34]", "value": -0.372},
      {"measurement": "glycan array binding signal (z-score)", "setting": "[35]", "value": -0.101},
      {"measurement": "glycan array binding signal (z-score)", "setting": "[36]", "value": -0.054},
      {"measurement": "glycan array binding signal (z-score)", "setting": "[37]", "value": -0.121}
    ]}
  ]
}
